Measurements published in article PMC4336329 (PLoS ONE, 2015).
Among all 310,000 compounds or so, about 2,200 (0.71%) showed an effect of 50% or more. The effect is printed as a negative number. This is one part of the list.

target: human ether-à-go-go-related gene (hERG) potassium channel (human, UniProt Q12809); assay: primary screen, population patch clamp on CHO cells stably expressing hERG
Sequence (Q12809 whole entry, looked up): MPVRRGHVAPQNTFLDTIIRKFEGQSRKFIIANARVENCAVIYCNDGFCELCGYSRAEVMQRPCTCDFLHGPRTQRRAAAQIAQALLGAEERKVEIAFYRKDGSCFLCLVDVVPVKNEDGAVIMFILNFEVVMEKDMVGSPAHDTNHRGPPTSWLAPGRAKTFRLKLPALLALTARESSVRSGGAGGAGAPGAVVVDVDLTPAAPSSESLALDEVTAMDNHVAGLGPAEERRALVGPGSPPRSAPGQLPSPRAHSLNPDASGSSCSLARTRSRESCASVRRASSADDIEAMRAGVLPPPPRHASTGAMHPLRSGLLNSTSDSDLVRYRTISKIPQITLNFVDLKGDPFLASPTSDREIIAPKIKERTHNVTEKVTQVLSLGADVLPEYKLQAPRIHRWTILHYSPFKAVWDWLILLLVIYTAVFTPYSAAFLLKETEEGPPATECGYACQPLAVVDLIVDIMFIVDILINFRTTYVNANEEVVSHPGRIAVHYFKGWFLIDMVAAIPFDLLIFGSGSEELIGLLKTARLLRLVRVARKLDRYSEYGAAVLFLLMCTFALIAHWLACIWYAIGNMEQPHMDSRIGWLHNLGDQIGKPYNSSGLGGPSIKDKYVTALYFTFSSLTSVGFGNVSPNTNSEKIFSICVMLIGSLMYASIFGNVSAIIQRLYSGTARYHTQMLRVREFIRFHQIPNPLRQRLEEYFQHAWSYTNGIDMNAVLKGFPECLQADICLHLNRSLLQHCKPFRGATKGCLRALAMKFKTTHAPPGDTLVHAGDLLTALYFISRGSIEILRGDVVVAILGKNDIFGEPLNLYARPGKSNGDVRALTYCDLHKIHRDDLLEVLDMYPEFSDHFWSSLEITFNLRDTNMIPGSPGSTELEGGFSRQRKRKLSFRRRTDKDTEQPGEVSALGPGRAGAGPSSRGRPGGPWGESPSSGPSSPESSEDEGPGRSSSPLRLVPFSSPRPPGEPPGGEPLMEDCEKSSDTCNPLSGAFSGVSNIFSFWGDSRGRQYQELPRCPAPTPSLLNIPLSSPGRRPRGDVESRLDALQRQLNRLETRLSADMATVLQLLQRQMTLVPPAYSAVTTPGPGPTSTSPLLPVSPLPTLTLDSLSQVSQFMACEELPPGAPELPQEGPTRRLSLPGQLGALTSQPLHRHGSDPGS

SMILES | hERG current change (%, negative = inhibition) at 1uM [%]
O=C(c1ccc(Cl)c(S(=O)(=O)N2CCCCC2)c1)N1CCCCCC1 | 3.72
Cc1ccc(N2C(=O)c3ccccc3C2=O)cc1Cl | -3.5
CCOC(=O)c1c(C#N)c(SCC(=O)Nc2ccc(OC)cc2)nc2c1CN(CC)CC2 | 4.56
CCN(CC(=O)NC1CCS(=O)(=O)C1)S(=O)(=O)c1ccccc1 (stereo not shown) | 13.5
COc1ccc(-n2cnnc2SCC(=O)N(C)C2CCS(=O)(=O)C2)cc1 (stereo not shown) | -4.66
COc1cccc(C2=Nc3cccc4cccc(c34)N2)c1 | -0.475
O=C(c1ccccc1)c1ccc(OCC(O)CN2CCCCC2)cc1 (stereo not shown) | -14.1
O=C(CCN1CCN(Cc2ccccc2)CC1)NNC(=O)Nc1cccc(Cl)c1 | -6.89
CCCCCCNc1nc(OC)nc(N2CC3CC(C2)c2cccc(=O)n2C3)n1 (stereo not shown) | -3.55
O=C(Nc1nc2ccccc2[nH]1)c1ccc(Cl)c(S(=O)(=O)N2CCCC2)c1 | 11.6
Cc1ccc(-c2csc(NC(=O)c3ccc(Br)cc3)c2C(=O)O)cc1 | 13.1
Cc1cc(C)n2nc(SCC(=O)Nc3ccccc3F)nc2n1 | -9.23
CCOC(=O)C1(Cc2ccccc2)CCCN(Cc2ccc(OCCO)cc2)C1 (stereo not shown) | 16.7
O=C(c1ccc(=O)oc1)N1CCCc2ccccc21 | 1.93
CCC(C)[C@H](NC(=O)[C@@H]1CSC2c3ccccc3C(=O)N21)C(=O)NC1CCCC1 (stereo partly shown) | 7.25
CCOC(=O)c1sc(C)c(C(N)=O)c1NC1=NCCCCC1 | -14.9
CCOC(=O)C1(Cc2ccccc2Cl)CCN(Cc2csc(C(C)=O)c2)CC1 | 7.58
Cc1nn(CC(=O)NC(=O)NC2CCCCC2C)c(=O)c(C#N)c1C (stereo not shown) | 12.2
COc1ccc(CN2C(=O)c3ccccc3C2=O)cc1C(=O)OC(C)C(=O)NC(N)=O (stereo not shown) | 18.5
C=C(C)C1CC=C(CN2CCC(O)CC2)CC1 (stereo not shown) | 3

SMILES | hERG current change (%, negative = inhibition) at 1uM [%]
COCCCNC(=O)CCc1nc2cccnc2n1Cc1ccccc1 | -11.9
Cc1ccc(S(=O)(=O)Nc2cccc(C(=O)NCC(c3ccco3)N3CCCCC3)c2)cc1F (stereo not shown) | 1.04
CCCOc1ccc(C2NC(=O)CCC2[N+](=O)[O-])cc1 (stereo not shown) | 16.6
COc1ccccc1CNC(=O)CSc1ncc(C(=O)Nc2ccccc2)c(=O)n1C | 3.62
COc1ccc(/C=C/CN2CCC(CO)(Cc3ccccc3Cl)CC2)cc1 | -61.9
COc1cc(O)cc2cc3c(c(O)c12)C(=O)CC(C)(O)O3 (stereo not shown) | 3.61
CC(C)(C)C(=O)CN1C(=O)C2(OCCO2)c2ccccc21 | 10.3
CCOc1ccccc1NC(=O)CN1CCC(NC(=O)Nc2ccccc2)CC1 | -4.93
CCC(CC)C(=O)Nc1cccc(C(=O)Nc2ccc(S(=O)(=O)Nc3ccc(C)cc3)cc2)c1 | 0.912
CCCNS(=O)(=O)c1ccc(OCC(=O)NCc2ccc3c(c2)OCO3)cc1 | 2.98
O=C(CN1C(=O)NC2(CCCCCC2)C1=O)c1ccccc1 | -0.357
COc1cccc(CC(=O)Nc2ccc(S(=O)(=O)Nc3nc(C)cc(C)n3)cc2)c1 | 11
CCOC(=O)C1=C(CC)OC(N)=C(C#N)C1c1cc(OC)ccc1OC (stereo not shown) | 8.35
CC1=C(C(=O)OC(C)C)C(c2cccnc2)n2ncnc2N1 (stereo not shown) | 11.9
COc1ccc(-c2cc(C(=O)Nc3ccc(F)cc3F)no2)cc1 | 10.9
O=C(NO)c1ccccc1C(F)(F)F | 15.9
CCOC(=O)N1CCC(NC(=O)c2ccc(CO)c(C(=O)NC3CCN(C(=O)OCC)CC3)c2)CC1 | 10.9
Cc1ccc(-c2csc(NC(=O)c3ccco3)n2)cc1C | 11.6
O=C(COc1ncnc2ccccc12)NCCC1=CCCCC1 | -2.84
CC1(C)Cc2c(c(N3CCOCC3)nc3sc(C(=O)N4CCCCC4)c(N)c23)CO1 | 14.7

SMILES | hERG current change (%, negative = inhibition) at 1uM [%]
O=C(NNC(=O)c1sccc1-n1cccc1)Nc1ccccc1 | 20.6
Cc1nc2ccc(N=NC3=C(O)CC(C)(C)CC3=O)cc2s1 | -19
COc1ccc(/C=C2\SC(=S)N(CCC(=O)Nc3ccc(O)cc3)C2=O)cc1 | 8.68
CC1CN(C(=O)c2ccc(-c3cccc(C(F)(F)F)c3)o2)CC(C)O1 (stereo not shown) | -5.14
C=CCn1c(C(C)NC(=O)c2ccccc2)n[nH]c1=S (stereo not shown) | -7.98
CCn1c(CC(=O)Nc2ccccc2C)nnc1SCC(=O)NC1=NCCS1 | 14.9
Cc1ccc(S(=O)(=O)NCCC(=O)Nc2ccc(S(=O)(=O)NC(C)C)cc2)cc1 | 11.4
CCN(CC)S(=O)(=O)c1cccc(-c2n[nH]c(=S)n2C)c1 | 2.84
CCOc1cc(C(=O)N2CCCN(C)CC2)cc(OCC)c1OCC | 14.9
COC(=O)Cc1ccc(NC(=S)NCCSc2ccc(C)cc2)cc1 | 6.04
O=C(Nc1nccs1)c1ccc(S(=O)(=O)N2CCOCC2)cc1 | 10.4
Cc1cc(NC(=O)CC2Oc3ccccc3NC2=O)ccc1Br (stereo not shown) | 8.1
Cc1cc(Cl)cc(Cl)c1OCC(=O)NCc1ccco1 | 6.91
CCC(=O)c1ccc(N2CCCC2)c(F)c1 | 16.6
CC(=O)c1ccc(NC(=O)CSc2nnc(C3CC3)n2C)cc1 | 12.5
Cc1ccc(S(=O)(=O)NNC(=O)C2CC=CCC2C(=O)O)cc1 (stereo not shown) | 11.7
CCOc1ccc(NC2=NCCC(=O)N2Cc2cccs2)cc1.Cl | 2.98
COc1ccccc1OCC(=O)Nc1cc(NC(=O)COc2ccccc2OC)cc(C(=O)O)c1 | 12.4
